In publication PMC12820563, “FoxP3 forms a head-to-head dimer in vivo and stabilizes its multimerization on adjacent microsatellites”:
This is one part of the list.

Each sequence was assayed against T1, MBP-FoxP1dN (Mus musculus, UniProt P58462 326-579) (assay: PD-seq (MBP pull-down with sequencing); 20 mM Tris-HCl pH 7.5, 100 mM NaCl, 1.5 mM MgCl2, 0.4 uM protein, 0.1 uM dsDNA library, 30 min, room temperature, amylose pull-down; high values mean tight binding). Details: protein: recombinant; tags: His6-MBP; chain copies: 2; dsDNA, one strand shown.
T1 sequence: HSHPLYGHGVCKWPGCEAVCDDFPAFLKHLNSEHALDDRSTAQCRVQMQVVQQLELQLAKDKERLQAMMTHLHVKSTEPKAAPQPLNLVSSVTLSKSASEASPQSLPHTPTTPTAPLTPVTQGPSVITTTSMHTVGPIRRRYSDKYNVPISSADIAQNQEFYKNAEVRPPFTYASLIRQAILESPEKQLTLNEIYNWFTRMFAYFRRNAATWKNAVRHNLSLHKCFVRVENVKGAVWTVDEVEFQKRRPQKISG
Outline: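 Binding is the reads-per-million enrichment of pull-down relative to input, pooled across replicates. For this, 0.4 µM His6-MBP-tagged mouse FoxP3 or FoxP1 fragment lacking the N-terminus, made in E. coli, was incubated with 0.1 µM Klenow-filled double-stranded degenerate DNA library for 30 min at room temperature in Tris pH 7.5 buffer with NaCl and MgCl2. Complexes bound to amylose resin were washed three times before proteinase K released the DNA for PCR barcoding and Illumina sequencing.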

| Sequence | binding signal |
| --- | --- |
| GATGATTGTTCTCCCAGCTGATGAATTTACCCCCTCGAGTAAACAAATTTTCCTAATCTTTCTGTTCAAGCGCCATCTAC | 1.05 RPM ratio (pull-down/input) |
| GATGATTGTTCTCCCAGCTGATGAATTCCAGAAATCGAGTAAACAAATTTTCCTAATCTTTCTGTTCAAGCGCCATCTAC | 0.987 RPM ratio (pull-down/input) |
| GATGATTGTTCTCCCAGCTGATGAATTACCATATTCGAGTAAACAAATTTTCCTAATCTTTCTGTTCAAGCGCCATCTAC | 1.11 RPM ratio (pull-down/input) |
| GATGATTGTTCTCCCAGCTGATGAATTTCTAACATCGAGTAAACAAATTTTCCTAATCTTTCTGTTCAAGCGCCATCTAC | 1.18 RPM ratio (pull-down/input) |
| GATGATTGTTCTCCCAGCTGATGAATTCGGGGTTTCGAGTAAACAAATTTTCCTAATCTTTCTGTTCAAGCGCCATCTAC | 0.846 RPM ratio (pull-down/input) |
| GATGATTGTTCTCCCAGCTGATGAATTAGCTCCGTCGAGTAAACAAATTTTCCTAATCTTTCTGTTCAAGCGCCATCTAC | 0.786 RPM ratio (pull-down/input) |
| GATGATTGTTCTCCCAGCTGATGAATTGATACGTTCGAGTAAACAAATTTTCCTAATCTTTCTGTTCAAGCGCCATCTAC | 1.2 RPM ratio (pull-down/input) |
| GATGATTGTTCTCCCAGCTGATGAATTCGGTAGATCGAGTAAACAAATTTTCCTAATCTTTCTGTTCAAGCGCCATCTAC | 0.874 RPM ratio (pull-down/input) |
| GATGATTGTTCTCCCAGCTGATGAATTGTGTGGCTCGAGTAAACAAATTTTCCTAATCTTTCTGTTCAAGCGCCATCTAC | 1.11 RPM ratio (pull-down/input) |
| GATGATTGTTCTCCCAGCTGATGAATTACGCAGCTCGAGTAAACAAATTTTCCTAATCTTTCTGTTCAAGCGCCATCTAC | 0.972 RPM ratio (pull-down/input) |
| GATGATTGTTCTCCCAGCTGATGAATTGGAGTATTCGAGTAAACAAATTTTCCTAATCTTTCTGTTCAAGCGCCATCTAC | 1.03 RPM ratio (pull-down/input) |
| GATGATTGTTCTCCCAGCTGATGAATTCTAGAGCTCGAGTAAACAAATTTTCCTAATCTTTCTGTTCAAGCGCCATCTAC | 0.762 RPM ratio (pull-down/input) |
| GATGATTGTTCTCCCAGCTGATGAATTGCGCTCCTCGAGTAAACAAATTTTCCTAATCTTTCTGTTCAAGCGCCATCTAC | 1.03 RPM ratio (pull-down/input) |
| GATGATTGTTCTCCCAGCTGATGAATTATAGTTATCGAGTAAACAAATTTTCCTAATCTTTCTGTTCAAGCGCCATCTAC | 1.19 RPM ratio (pull-down/input) |
| GATGATTGTTCTCCCAGCTGATGAATTGTTAAATTCGAGTAAACAAATTTTCCTAATCTTTCTGTTCAAGCGCCATCTAC | 1.16 RPM ratio (pull-down/input) |
| GATGATTGTTCTCCCAGCTGATGAATTGGGGTCGTCGAGTAAACAAATTTTCCTAATCTTTCTGTTCAAGCGCCATCTAC | 0.814 RPM ratio (pull-down/input) |
| GATGATTGTTCTCCCAGCTGATGAATTGTTGATGTCGAGTAAACAAATTTTCCTAATCTTTCTGTTCAAGCGCCATCTAC | 2.27 RPM ratio (pull-down/input) |
| GATGATTGTTCTCCCAGCTGATGAATTGTTTTAATCGAGTAAACAAATTTTCCTAATCTTTCTGTTCAAGCGCCATCTAC | 1.38 RPM ratio (pull-down/input) |
| GATGATTGTTCTCCCAGCTGATGAATTGTCGTGGTCGAGTAAACAAATTTTCCTAATCTTTCTGTTCAAGCGCCATCTAC | 0.937 RPM ratio (pull-down/input) |
| GATGATTGTTCTCCCAGCTGATGAATTGACTGCATCGAGTAAACAAATTTTCCTAATCTTTCTGTTCAAGCGCCATCTAC | 1.26 RPM ratio (pull-down/input) |

| Sequence | binding signal |
| --- | --- |
| GATGATTGTTCTCCCAGCTGATGAATTCGGCGCGTCGAGTAAACAAATTTTCCTAATCTTTCTGTTCAAGCGCCATCTAC | 0.928 RPM ratio (pull-down/input) |
| GATGATTGTTCTCCCAGCTGATGAATTAGTGGGTTCGAGTAAACAAATTTTCCTAATCTTTCTGTTCAAGCGCCATCTAC | 0.904 RPM ratio (pull-down/input) |
| GATGATTGTTCTCCCAGCTGATGAATTCTGCTGGTCGAGTAAACAAATTTTCCTAATCTTTCTGTTCAAGCGCCATCTAC | 0.85 RPM ratio (pull-down/input) |
| GATGATTGTTCTCCCAGCTGATGAATTTGCCGTATCGAGTAAACAAATTTTCCTAATCTTTCTGTTCAAGCGCCATCTAC | 1.01 RPM ratio (pull-down/input) |
| GATGATTGTTCTCCCAGCTGATGAATTACAATCGTCGAGTAAACAAATTTTCCTAATCTTTCTGTTCAAGCGCCATCTAC | 1.15 RPM ratio (pull-down/input) |
| GATGATTGTTCTCCCAGCTGATGAATTAATTGGATCGAGTAAACAAATTTTCCTAATCTTTCTGTTCAAGCGCCATCTAC | 0.933 RPM ratio (pull-down/input) |
| GATGATTGTTCTCCCAGCTGATGAATTAATCCATTCGAGTAAACAAATTTTCCTAATCTTTCTGTTCAAGCGCCATCTAC | 0.904 RPM ratio (pull-down/input) |
| GATGATTGTTCTCCCAGCTGATGAATTAGATGAATCGAGTAAACAAATTTTCCTAATCTTTCTGTTCAAGCGCCATCTAC | 1.01 RPM ratio (pull-down/input) |
| GATGATTGTTCTCCCAGCTGATGAATTCTCCCGATCGAGTAAACAAATTTTCCTAATCTTTCTGTTCAAGCGCCATCTAC | 0.902 RPM ratio (pull-down/input) |
| GATGATTGTTCTCCCAGCTGATGAATTCGCCGGGTCGAGTAAACAAATTTTCCTAATCTTTCTGTTCAAGCGCCATCTAC | 0.782 RPM ratio (pull-down/input) |
| GATGATTGTTCTCCCAGCTGATGAATTTATATAATCGAGTAAACAAATTTTCCTAATCTTTCTGTTCAAGCGCCATCTAC | 1.3 RPM ratio (pull-down/input) |
| GATGATTGTTCTCCCAGCTGATGAATTAGTTAGCTCGAGTAAACAAATTTTCCTAATCTTTCTGTTCAAGCGCCATCTAC | 0.932 RPM ratio (pull-down/input) |
| GATGATTGTTCTCCCAGCTGATGAATTCCCAGTATCGAGTAAACAAATTTTCCTAATCTTTCTGTTCAAGCGCCATCTAC | 0.904 RPM ratio (pull-down/input) |
| GATGATTGTTCTCCCAGCTGATGAATTTCGGCTCTCGAGTAAACAAATTTTCCTAATCTTTCTGTTCAAGCGCCATCTAC | 0.854 RPM ratio (pull-down/input) |
| GATGATTGTTCTCCCAGCTGATGAATTACTCCGATCGAGTAAACAAATTTTCCTAATCTTTCTGTTCAAGCGCCATCTAC | 0.985 RPM ratio (pull-down/input) |
| GATGATTGTTCTCCCAGCTGATGAATTGCTATTTTCGAGTAAACAAATTTTCCTAATCTTTCTGTTCAAGCGCCATCTAC | 2.22 RPM ratio (pull-down/input) |
| GATGATTGTTCTCCCAGCTGATGAATTTCCTGAGTCGAGTAAACAAATTTTCCTAATCTTTCTGTTCAAGCGCCATCTAC | 0.85 RPM ratio (pull-down/input) |
| GATGATTGTTCTCCCAGCTGATGAATTGACCTTATCGAGTAAACAAATTTTCCTAATCTTTCTGTTCAAGCGCCATCTAC | 1.04 RPM ratio (pull-down/input) |
| GATGATTGTTCTCCCAGCTGATGAATTCGCCTTTTCGAGTAAACAAATTTTCCTAATCTTTCTGTTCAAGCGCCATCTAC | 0.941 RPM ratio (pull-down/input) |
| GATGATTGTTCTCCCAGCTGATGAATTGGAGAGATCGAGTAAACAAATTTTCCTAATCTTTCTGTTCAAGCGCCATCTAC | 0.828 RPM ratio (pull-down/input) |
